{"source": "the supplement of paper PMC10126150", "note": "Sequences with one replicate were seen in a single cluster, so their values are uncertain.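 Also: ATP exposure 15 min at 22 °C before imaging.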", "data": [{"test_system": "ATP", "assay": "switch fluorescence ratio, 500 uM ATP over buffer (Cy3 cluster intensity, sum of 5 cycles each) (fold (ratio)); higher = stronger signal-on switching upon ATP binding; sequences stand for … in TCGTCGGCAGCGTCAGATGTGTATAAGAGACAGTTTTTTTTTTTTTTTTTTTTTTTTT…TC", "details": "aptamer strand: ATP DNA aptamer (quencher-CACCTGGGGGAGTATTGCGGAGGAAGG + anchor), 100 nM annealed; ATP concentration: 500 uM; one replicate", "outline": "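Imaging in selection buffer was followed by imaging after 15 min with 500 uM ATP at 22 °C, for Cy3-labelled switching-strand clusters annealed to 100 nM quencher-labelled ATP aptamer on a modified Illumina MiSeq flow-cell. Five of these buffer/ATP cycles ran, separated by NaOH stripping and re-annealing. The fluorescence ratio per cluster is summed target-cycle over summed buffer-cycle Cy3 intensity, averaged per switch-domain sequence; clusters outside 100-1000 RFU were removed.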", "values": [{"sequence": "TAGAGCAT", "switch fluorescence ratio": 1.05}, {"sequence": "TAGAGCCCCG", "switch fluorescence ratio": 1.01}, {"sequence": "TAGAGCCTGG", "switch fluorescence ratio": 0.978}, {"sequence": "TAGAGCTGCG", "switch fluorescence ratio": 0.981}, {"sequence": "TAGAGGCATT", "switch fluorescence ratio": 1.31}, {"sequence": "TAGAGGGTAA", "switch fluorescence ratio": 1.01}, {"sequence": "TAGAGGTATA", "switch fluorescence ratio": 0.976}, {"sequence": "TAGAGGTTCA", "switch fluorescence ratio": 1}, {"sequence": "TAGAGTATTA", "switch fluorescence ratio": 0.965}, {"sequence": "TAGAGTGATC", "switch fluorescence ratio": 0.998}, {"sequence": "TAGATACGCT", "switch fluorescence ratio": 1.01}, {"sequence": "TAGATATCCG", "switch fluorescence ratio": 0.986}, {"sequence": "TAGATATCTA", "switch fluorescence ratio": 1.04}, {"sequence": "TAGATCCGAT", "switch fluorescence ratio": 0.96}, {"sequence": "TAGATGACAA", "switch fluorescence ratio": 0.943}, {"sequence": "TAGATGACTG", "switch fluorescence ratio": 0.903}, {"sequence": "TAGATGATCG", "switch fluorescence ratio": 0.932}, {"sequence": "TAGATGCTCT", "switch fluorescence ratio": 0.983}, {"sequence": "TAGATGTTCA", "switch fluorescence ratio": 1.04}, {"sequence": "TAGATTGACA", "switch fluorescence ratio": 1.02}, {"sequence": "TAGATTGAGA", "switch fluorescence ratio": 1}, {"sequence": "TAGATTGTTA", "switch fluorescence ratio": 0.98}, {"sequence": "TAGATTTTCC", "switch fluorescence ratio": 1.04}, {"sequence": "TAGCAAATTC", "switch fluorescence ratio": 1.88}, {"sequence": "TAGCAGATTT", "switch fluorescence ratio": 0.962}, {"sequence": "TAGCAGGCGG", "switch fluorescence ratio": 0.995}, {"sequence": "TAGCCCCGAG", "switch fluorescence ratio": 1.03}, {"sequence": "TAGCCCCTTG", "switch fluorescence ratio": 1.02}, {"sequence": "TAGCCGCAGC", "switch fluorescence ratio": 1.25}, {"sequence": "TAGCCTGATC", "switch fluorescence ratio": 1.16}, {"sequence": "TAGCGAAAGA", "switch fluorescence ratio": 0.994}, {"sequence": "TAGCGACATC", "switch fluorescence ratio": 0.974}, {"sequence": "TAGCGGCGGA", "switch fluorescence ratio": 0.986}, {"sequence": "TAGCGTCCGG", "switch fluorescence ratio": 0.998}, {"sequence": "TAGCGTTC", "switch fluorescence ratio": 1.04}, {"sequence": "TAGCGTTGTT", "switch fluorescence ratio": 0.963}, {"sequence": "TAGCTAGCCG", "switch fluorescence ratio": 0.977}, {"sequence": "TAGCTATGTA", "switch fluorescence ratio": 1.01}, {"sequence": "TAGCTCAGCC", "switch fluorescence ratio": 1}, {"sequence": "TAGCTCCCCC", "switch fluorescence ratio": 1.04}, {"sequence": "TAGCTCTGAT", "switch fluorescence ratio": 1.02}, {"sequence": "TAGCTGGCAG", "switch fluorescence ratio": 1.01}, {"sequence": "TAGCTGTTGG", "switch fluorescence ratio": 0.988}, {"sequence": "TAGCTTATTT", "switch fluorescence ratio": 1.03}, {"sequence": "TAGGAAATGG", "switch fluorescence ratio": 1.01}, {"sequence": "TAGGAACTAT", "switch fluorescence ratio": 1.01}, {"sequence": "TAGGAAGGAT", "switch fluorescence ratio": 0.972}, {"sequence": "TAGGACTCT", "switch fluorescence ratio": 0.992}, {"sequence": "TAGGAGACTT", "switch fluorescence ratio": 1}, {"sequence": "TAGGAGAGC", "switch fluorescence ratio": 1.08}, {"sequence": "TAGGAGCTGG", "switch fluorescence ratio": 1.02}, {"sequence": "TAGGATAACA", "switch fluorescence ratio": 0.97}, {"sequence": "TAGGATACCG", "switch fluorescence ratio": 1.08}, {"sequence": "TAGGATGAGA", "switch fluorescence ratio": 0.975}, {"sequence": "TAGGATTCAT", "switch fluorescence ratio": 0.975}, {"sequence": "TAGGATTGAG", "switch fluorescence ratio": 0.987}, {"sequence": "TAGGCAAAAA", "switch fluorescence ratio": 0.97}, {"sequence": "TAGGCATTGT", "switch fluorescence ratio": 1.01}, {"sequence": "TAGGCCATGC", "switch fluorescence ratio": 1.02}, {"sequence": "TAGGCGCGTG", "switch fluorescence ratio": 1.01}, {"sequence": "TAGGCGCTGG", "switch fluorescence ratio": 0.99}, {"sequence": "TAGGGACATG", "switch fluorescence ratio": 1.1}, {"sequence": "TAGGGCCAGG", "switch fluorescence ratio": 1.09}, {"sequence": "TAGGGCTGAC", "switch fluorescence ratio": 1.16}, {"sequence": "TAGGGCTTTA", "switch fluorescence ratio": 1.01}, {"sequence": "TAGGGGAGCG", "switch fluorescence ratio": 0.975}, {"sequence": "TAGGGGCAAA", "switch fluorescence ratio": 1.03}, {"sequence": "TAGGGGCACC", "switch fluorescence ratio": 0.995}, {"sequence": "TAGGGTTACT", "switch fluorescence ratio": 1.01}, {"sequence": "TAGGTAACGA", "switch fluorescence ratio": 0.98}, {"sequence": "TAGGTAAGCA", "switch fluorescence ratio": 1.01}, {"sequence": "TAGGTACGGT", "switch fluorescence ratio": 1.04}, {"sequence": "TAGGTAGCAG", "switch fluorescence ratio": 0.96}, {"sequence": "TAGGTATATG", "switch fluorescence ratio": 0.967}, {"sequence": "TAGGTCATAG", "switch fluorescence ratio": 1.01}, {"sequence": "TAGGTCCGCA", "switch fluorescence ratio": 1.75}, {"sequence": "TAGGTTACTA", "switch fluorescence ratio": 1}, {"sequence": "TAGGTTTTCT", "switch fluorescence ratio": 0.994}, {"sequence": "TAGTAAGAA", "switch fluorescence ratio": 0.996}, {"sequence": "TAGTAATAGC", "switch fluorescence ratio": 1.09}, {"sequence": "TAGTAATAGT", "switch fluorescence ratio": 1.08}, {"sequence": "TAGTACTTGT", "switch fluorescence ratio": 0.966}, {"sequence": "TAGTAGCGCT", "switch fluorescence ratio": 0.98}, {"sequence": "TAGTAGGTGT", "switch fluorescence ratio": 1.08}, {"sequence": "TAGTATACTT", "switch fluorescence ratio": 0.982}, {"sequence": "TAGTATCTA", "switch fluorescence ratio": 1}, {"sequence": "TAGTATGATC", "switch fluorescence ratio": 1.04}, {"sequence": "TAGTATTTGT", "switch fluorescence ratio": 0.996}, {"sequence": "TAGTCAAGTT", "switch fluorescence ratio": 1.08}, {"sequence": "TAGTCAGGGA", "switch fluorescence ratio": 0.994}, {"sequence": "TAGTCCAATT", "switch fluorescence ratio": 0.987}, {"sequence": "TAGTCCGCTA", "switch fluorescence ratio": 2.84}, {"sequence": "TAGTCGCTGG", "switch fluorescence ratio": 1.05}, {"sequence": "TAGTCGTTT", "switch fluorescence ratio": 0.945}, {"sequence": "TAGTGAACAT", "switch fluorescence ratio": 1.03}, {"sequence": "TAGTGCCGTG", "switch fluorescence ratio": 1.09}, {"sequence": "TAGTGCGCA", "switch fluorescence ratio": 0.921}, {"sequence": "TAGTGGTAAA", "switch fluorescence ratio": 0.98}, {"sequence": "TAGTGGTGGT", "switch fluorescence ratio": 0.961}, {"sequence": "TAGTGGTGTC", "switch fluorescence ratio": 0.977}, {"sequence": "TAGTGTCGGG", "switch fluorescence ratio": 0.97}, {"sequence": "TAGTGTTGCG", "switch fluorescence ratio": 1.01}, {"sequence": "TAGTTAAAAT", "switch fluorescence ratio": 1.02}, {"sequence": "TAGTTAGCTC", "switch fluorescence ratio": 1.04}, {"sequence": "TAGTTCGAGT", "switch fluorescence ratio": 0.978}, {"sequence": "TAGTTCGTTC", "switch fluorescence ratio": 0.998}, {"sequence": "TAGTTGATTA", "switch fluorescence ratio": 1.01}, {"sequence": "TAGTTGCGCC", "switch fluorescence ratio": 1.07}, {"sequence": "TAGTTGCGCG", "switch fluorescence ratio": 0.991}, {"sequence": "TAGTTGGAAT", "switch fluorescence ratio": 0.996}, {"sequence": "TAGTTGGTGT", "switch fluorescence ratio": 1.03}, {"sequence": "TAGTTGTTAG", "switch fluorescence ratio": 0.915}, {"sequence": "TAGTTGTTCA", "switch fluorescence ratio": 1.02}, {"sequence": "TAGTTTCGAA", "switch fluorescence ratio": 0.974}, {"sequence": "TAGTTTGGT", "switch fluorescence ratio": 0.994}, {"sequence": "TATAAAGAAC", "switch fluorescence ratio": 1.35}, {"sequence": "TATAAAGCTA", "switch fluorescence ratio": 1.04}, {"sequence": "TATAACCTTA", "switch fluorescence ratio": 1.16}, {"sequence": "TATAACGAC", "switch fluorescence ratio": 1.01}, {"sequence": "TATAACTAAG", "switch fluorescence ratio": 0.964}, {"sequence": "TATAAGGTAT", "switch fluorescence ratio": 0.952}, {"sequence": "TATAAGGTTA", "switch fluorescence ratio": 0.967}, {"sequence": "TATAAGTTCG", "switch fluorescence ratio": 0.989}, {"sequence": "TATAATCCGC", "switch fluorescence ratio": 0.994}, {"sequence": "TATAATTACT", "switch fluorescence ratio": 1.05}, {"sequence": "TATACAAGGG", "switch fluorescence ratio": 1.02}, {"sequence": "TATACCGGTC", "switch fluorescence ratio": 1.01}, {"sequence": "TATACGCCGC", "switch fluorescence ratio": 1.28}, {"sequence": "TATACGCGTA", "switch fluorescence ratio": 0.979}, {"sequence": "TATACGGCCT", "switch fluorescence ratio": 1.04}, {"sequence": "TATACGTCGA", "switch fluorescence ratio": 1.05}, {"sequence": "TATACTTATT", "switch fluorescence ratio": 1.05}, {"sequence": "TATACTTGTG", "switch fluorescence ratio": 0.991}, {"sequence": "TATACTTTCG", "switch fluorescence ratio": 1.01}, {"sequence": "TATAGAACTA", "switch fluorescence ratio": 1.02}, {"sequence": "TATAGACTA", "switch fluorescence ratio": 1.02}, {"sequence": "TATAGAGTGG", "switch fluorescence ratio": 1}, {"sequence": "TATAGCGGTG", "switch fluorescence ratio": 0.989}, {"sequence": "TATAGTATTC", "switch fluorescence ratio": 1}, {"sequence": "TATAGTGATA", "switch fluorescence ratio": 1}, {"sequence": "TATATAAAAC", "switch fluorescence ratio": 0.941}, {"sequence": "TATATACGTG", "switch fluorescence ratio": 1}, {"sequence": "TATATAGCGG", "switch fluorescence ratio": 1.03}, {"sequence": "TATATGCGCT", "switch fluorescence ratio": 1.01}, {"sequence": "TATATGCTTC", "switch fluorescence ratio": 1.01}, {"sequence": "TATATGTAAA", "switch fluorescence ratio": 1.02}, {"sequence": "TATATTGAGA", "switch fluorescence ratio": 0.988}, {"sequence": "TATATTT", "switch fluorescence ratio": 1.04}, {"sequence": "TATATTTA", "switch fluorescence ratio": 1.02}, {"sequence": "TATCACCCAT", "switch fluorescence ratio": 1.01}, {"sequence": "TATCAGTAAA", "switch fluorescence ratio": 0.998}, {"sequence": "TATCATCGCG", "switch fluorescence ratio": 0.973}, {"sequence": "TATCATCTT", "switch fluorescence ratio": 1.01}]}]}
